{
  "source": "paper PMC9911399",
  "about": "“Two distinct binding modes provide the RNA-binding protein RbFox with extraordinary sequence specificity”",
  "binders": {"B1": {"name": "AUCUUAA (DNA:RNA)", "RNA": "GGGAGACCGGAAUUCAGAUUGUCCAUCUUAAUUAAAUCCCGUCGUAGCCACCA", "DNA 1": "CAATCTGAATTCCGGTCTCCC", "DNA 2": "TGGTGGCTACGACGGGATT"}, "B2": {"name": "CUCGCAU (DNA:RNA)", "RNA": "B1 RNA with A25C, U28G, U29C, A31U", "DNA 1": "CAATCTGAATTCCGGTCTCCC", "DNA 2": "TGGTGGCTACGACGGGATT"}, "B3": {"name": "UCUUUAG (DNA:RNA)", "RNA": "B1 RNA with A25U, U26C, C27U, A31G", "DNA 1": "CAATCTGAATTCCGGTCTCCC", "DNA 2": "TGGTGGCTACGACGGGATT"}, "B4": {"name": "UCGGGAC (DNA:RNA)", "RNA": "B1 RNA with A25U, U26C, C27G, U28G, U29G, A31C", "DNA 1": "CAATCTGAATTCCGGTCTCCC", "DNA 2": "TGGTGGCTACGACGGGATT"}, "B5": {"name": "GAUUCCA (DNA:RNA)", "RNA": "B1 RNA with A25G, U26A, C27U, U29C, A30C", "DNA 1": "CAATCTGAATTCCGGTCTCCC", "DNA 2": "TGGTGGCTACGACGGGATT"}, "B6": {"name": "CUCGCUG (DNA:RNA)", "RNA": "B1 RNA with A25C, U28G, U29C, A30U, A31G", "DNA 1": "CAATCTGAATTCCGGTCTCCC", "DNA 2": "TGGTGGCTACGACGGGATT"}, "B7": {"name": "CGAUAAA (DNA:RNA)", "RNA": "B1 RNA with A25C, U26G, C27A, U29A", "DNA 1": "CAATCTGAATTCCGGTCTCCC", "DNA 2": "TGGTGGCTACGACGGGATT"}, "B8": {"name": "AAUCGAU (DNA:RNA)", "RNA": "B1 RNA with U26A, C27U, U28C, U29G, A31U", "DNA 1": "CAATCTGAATTCCGGTCTCCC", "DNA 2": "TGGTGGCTACGACGGGATT"}, "B9": {"name": "GCGCGCG (DNA:RNA)", "RNA": "GGGAGACCGGAAUUCAGAUUGUCCGCGCGCGUUAAAUCCCGUCGUAGCCACCA", "DNA 1": "CAATCTGAATTCCGGTCTCCC", "DNA 2": "TGGTGGCTACGACGGGATT"}, "B10": {"name": "CACUAGU (DNA:RNA)", "RNA": "B1 RNA with A25C, U26A, U29A, A30G, A31U", "DNA 1": "CAATCTGAATTCCGGTCTCCC", "DNA 2": "TGGTGGCTACGACGGGATT"}, "B11": {"name": "GGACGCG (DNA:RNA)", "RNA": "B9 RNA with C26G, G27A", "DNA 1": "CAATCTGAATTCCGGTCTCCC", "DNA 2": "TGGTGGCTACGACGGGATT"}, "B12": {"name": "CAGUUAA (DNA:RNA)", "RNA": "B1 RNA with A25C, U26A, C27G", "DNA 1": "CAATCTGAATTCCGGTCTCCC", "DNA 2": "TGGTGGCTACGACGGGATT"}, "B13": {"name": "AGCUGCC (DNA:RNA)", "RNA": "B1 RNA with U26G, U29G, A30C, A31C", "DNA 1": "CAATCTGAATTCCGGTCTCCC", "DNA 2": "TGGTGGCTACGACGGGATT"}, "B14": {"name": "AACAAAC (DNA:RNA)", "RNA": "B1 RNA with U26A, U28A, U29A, A31C", "DNA 1": "CAATCTGAATTCCGGTCTCCC", "DNA 2": "TGGTGGCTACGACGGGATT"}, "B15": {"name": "UCCGGCC (DNA:RNA)", "RNA": "B9 RNA with G25U, G27C, C28G, G31C", "DNA 1": "CAATCTGAATTCCGGTCTCCC", "DNA 2": "TGGTGGCTACGACGGGATT"}, "B16": {"name": "UCCCUGC (DNA:RNA)", "RNA": "B1 RNA with A25U, U26C, U28C, A30G, A31C", "DNA 1": "CAATCTGAATTCCGGTCTCCC", "DNA 2": "TGGTGGCTACGACGGGATT"}, "B17": {"name": "GUACUCG (DNA:RNA)", "RNA": "B9 RNA with C26U, G27A, G29U", "DNA 1": "CAATCTGAATTCCGGTCTCCC", "DNA 2": "TGGTGGCTACGACGGGATT"}, "B18": {"name": "AUGAGUA (DNA:RNA)", "RNA": "B1 RNA with C27G, U28A, U29G, A30U", "DNA 1": "CAATCTGAATTCCGGTCTCCC", "DNA 2": "TGGTGGCTACGACGGGATT"}, "B19": {"name": "GCGUAAC (DNA:RNA)", "RNA": "B9 RNA with C28U, G29A, C30A, G31C", "DNA 1": "CAATCTGAATTCCGGTCTCCC", "DNA 2": "TGGTGGCTACGACGGGATT"}, "B20": {"name": "GCGUAAU (DNA:RNA)", "RNA": "B9 RNA with C28U, G29A, C30A, G31U", "DNA 1": "CAATCTGAATTCCGGTCTCCC", "DNA 2": "TGGTGGCTACGACGGGATT"}, "B21": {"name": "CAGCCCC (DNA:RNA)", "RNA": "B9 RNA with G25C, C26A, G29C, G31C", "DNA 1": "CAATCTGAATTCCGGTCTCCC", "DNA 2": "TGGTGGCTACGACGGGATT"}, "B22": {"name": "ACGACUA (DNA:RNA)", "RNA": "B1 RNA with U26C, C27G, U28A, U29C, A30U", "DNA 1": "CAATCTGAATTCCGGTCTCCC", "DNA 2": "TGGTGGCTACGACGGGATT"}, "B23": {"name": "CUUUAGG (DNA:RNA)", "RNA": "B1 RNA with A25C, C27U, U29A, A30G, A31G", "DNA 1": "CAATCTGAATTCCGGTCTCCC", "DNA 2": "TGGTGGCTACGACGGGATT"}, "B24": {"name": "AGGAAAU (DNA:RNA)", "RNA": "B1 RNA with U26G, C27G, U28A, U29A, A31U", "DNA 1": "CAATCTGAATTCCGGTCTCCC", "DNA 2": "TGGTGGCTACGACGGGATT"}, "B25": {"name": "UGCUACA (DNA:RNA)", "RNA": "B1 RNA with A25U, U26G, U29A, A30C", "DNA 1": "CAATCTGAATTCCGGTCTCCC", "DNA 2": "TGGTGGCTACGACGGGATT"}, "B26": {"name": "CUCUUAG (DNA:RNA)", "RNA": "B1 RNA with A25C, A31G", "DNA 1": "CAATCTGAATTCCGGTCTCCC", "DNA 2": "TGGTGGCTACGACGGGATT"}, "B27": {"name": "ACUUCGU (DNA:RNA)", "RNA": "B1 RNA with U26C, C27U, U29C, A30G, A31U", "DNA 1": "CAATCTGAATTCCGGTCTCCC", "DNA 2": "TGGTGGCTACGACGGGATT"}, "B28": {"name": "UCGCGUG (DNA:RNA)", "RNA": "B9 RNA with G25U, C30U", "DNA 1": "CAATCTGAATTCCGGTCTCCC", "DNA 2": "TGGTGGCTACGACGGGATT"}, "B29": {"name": "UUGGGAC (DNA:RNA)", "RNA": "B1 RNA with A25U, C27G, U28G, U29G, A31C", "DNA 1": "CAATCTGAATTCCGGTCTCCC", "DNA 2": "TGGTGGCTACGACGGGATT"}, "B30": {"name": "CACUGCG (DNA:RNA)", "RNA": "B9 RNA with G25C, C26A, G27C, C28U", "DNA 1": "CAATCTGAATTCCGGTCTCCC", "DNA 2": "TGGTGGCTACGACGGGATT"}, "B31": {"name": "UUUACAA (DNA:RNA)", "RNA": "B1 RNA with A25U, C27U, U28A, U29C", "DNA 1": "CAATCTGAATTCCGGTCTCCC", "DNA 2": "TGGTGGCTACGACGGGATT"}},
  "note": "Residue numbers refer to the chain shown, from its start. The list shows a part of the results.",
  "data": [
    {"biological_target": "T1, RBFOX1 RRM (Homo sapiens, UniProt Q9NWB1 109-208)", "T1 sequence": "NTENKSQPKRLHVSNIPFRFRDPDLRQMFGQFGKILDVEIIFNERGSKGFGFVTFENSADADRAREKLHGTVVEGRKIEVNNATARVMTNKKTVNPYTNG", "experiment": "EMSA; HiTS-Eq, 1 nM pool, 10 min; buffer printed only for the single-RNA assays: 10 mM Tris pH 7.5, 150 mM NaCl, 3.4 mM EDTA, 0.001% NP-40, 30 C", "conditions": "tags: His6 N-terminal (pET28a); label: 5' 32P", "summary_of_the_method": "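Purified RbFox RRM, wild type or mutant, was incubated for 10 min in 50 µL with 1 nM of a 5′-radiolabelled RNA pool carrying 7 randomized nucleotides, whose flanks were annealed to DNA oligonucleotides, over a series of increasing protein concentrations. Unbound RNA was resolved on 8% native PAGE, cut out, reverse-transcribed, barcoded by PCR and sequenced on an Illumina HiSeq 2500. Relative association constants were derived from changes in read counts for each RNA species versus the control reaction and normalised to the cognate motif.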", "values": [
      {"binder": "B1", "binding signal": "0.00359 KA relative to UGCAUGU"},
      {"binder": "B2", "binding signal": "0.0136 KA relative to UGCAUGU"},
      {"binder": "B3", "binding signal": "0.0126 KA relative to UGCAUGU"},
      {"binder": "B4", "binding signal": "0.00547 KA relative to UGCAUGU"},
      {"binder": "B5", "binding signal": "0.00974 KA relative to UGCAUGU"},
      {"binder": "B6", "binding signal": "0.0129 KA relative to UGCAUGU"},
      {"binder": "B7", "binding signal": "0.0045 KA relative to UGCAUGU"},
      {"binder": "B8", "binding signal": "0.00636 KA relative to UGCAUGU"},
      {"binder": "B9", "binding signal": "0.0205 KA relative to UGCAUGU"},
      {"binder": "B10", "binding signal": "0.00197 KA relative to UGCAUGU"},
      {"binder": "B11", "binding signal": "0.0131 KA relative to UGCAUGU"},
      {"binder": "B12", "binding signal": "0.00222 KA relative to UGCAUGU"},
      {"binder": "B13", "binding signal": "0.0145 KA relative to UGCAUGU"},
      {"binder": "B14", "binding signal": "0.00046 KA relative to UGCAUGU"},
      {"binder": "B15", "binding signal": "0.00966 KA relative to UGCAUGU"},
      {"binder": "B16", "binding signal": "0.0242 KA relative to UGCAUGU"},
      {"binder": "B17", "binding signal": "0.0142 KA relative to UGCAUGU"},
      {"binder": "B18", "binding signal": "0.00835 KA relative to UGCAUGU"},
      {"binder": "B19", "binding signal": "0.00892 KA relative to UGCAUGU"},
      {"binder": "B20", "binding signal": "0.00593 KA relative to UGCAUGU"},
      {"binder": "B21", "binding signal": "0.00224 KA relative to UGCAUGU"},
      {"binder": "B22", "binding signal": "0.00262 KA relative to UGCAUGU"},
      {"binder": "B23", "binding signal": "0.0115 KA relative to UGCAUGU"},
      {"binder": "B24", "binding signal": "0.0084 KA relative to UGCAUGU"},
      {"binder": "B25", "binding signal": "0.0119 KA relative to UGCAUGU"},
      {"binder": "B26", "binding signal": "0.00731 KA relative to UGCAUGU"},
      {"binder": "B27", "binding signal": "0.0148 KA relative to UGCAUGU"},
      {"binder": "B28", "binding signal": "0.0257 KA relative to UGCAUGU"},
      {"binder": "B29", "binding signal": "0.00488 KA relative to UGCAUGU"},
      {"binder": "B30", "binding signal": "0.0107 KA relative to UGCAUGU"},
      {"binder": "B31", "binding signal": "0.00179 KA relative to UGCAUGU"}
    ]}
  ]
}
